US20220340642A1 (Kyowa Kirin, published 2022)
Where a chain is given by its changes, count along the chain named. Names and notes keep the numbering of the source.

T1: Human His6 Fas Ligand/TNFSF6 (Cell Signaling Technology, Inc.) (human, UniProt P48023 133-281)
T1 construct: Bought; confirmed as a trimer by SEC-MALS; also called recombinant human His6 Fas Ligand; soluble human FasL trimer
T1 sequence: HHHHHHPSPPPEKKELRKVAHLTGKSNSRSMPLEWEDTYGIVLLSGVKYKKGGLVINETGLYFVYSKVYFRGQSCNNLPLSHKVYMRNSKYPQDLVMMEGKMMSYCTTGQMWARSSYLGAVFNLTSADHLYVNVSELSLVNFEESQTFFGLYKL

T2: soluble recombinant of cynomolgus monkey FasL (His6, Pro133-Leu280) (cynomolgus monkey, UniProt P63308 133-280)
T2 construct: also called His6-cynoFasL
T2 sequence: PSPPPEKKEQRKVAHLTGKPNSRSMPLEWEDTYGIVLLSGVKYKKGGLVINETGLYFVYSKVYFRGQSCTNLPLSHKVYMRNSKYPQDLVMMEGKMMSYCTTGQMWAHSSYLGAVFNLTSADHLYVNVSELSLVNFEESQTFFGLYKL

T3: soluble recombinant of human TL1A (His6, GS linker, Leu72-Leu251) (human, UniProt O95150 72-251)
T3 construct: also called His6-TL1A; hTL1A
T3 sequence: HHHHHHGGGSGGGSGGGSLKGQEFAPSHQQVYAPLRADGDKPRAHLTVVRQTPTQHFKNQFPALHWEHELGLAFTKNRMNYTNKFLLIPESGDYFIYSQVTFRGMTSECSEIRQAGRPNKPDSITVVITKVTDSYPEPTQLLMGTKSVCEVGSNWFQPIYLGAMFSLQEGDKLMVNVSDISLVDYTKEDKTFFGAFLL

T4: FLAG-cynoLIGHT (FLAG tag, cynomolgus monkey LIGHT Asp74-Val240) (cynomolgus monkey)
T4 construct: SEC trimer fraction; also called soluble cynomolgus monkey LIGHT trimer
T4 chain: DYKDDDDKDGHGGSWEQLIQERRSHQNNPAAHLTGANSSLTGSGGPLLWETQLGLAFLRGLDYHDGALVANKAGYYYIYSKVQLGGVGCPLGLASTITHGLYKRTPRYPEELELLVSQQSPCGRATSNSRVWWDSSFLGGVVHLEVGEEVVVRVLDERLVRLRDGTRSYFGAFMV

T5: soluble recombinant of cynomolgus monkey TL1A (His6, GS linker, Leu72-Leu251) (cynomolgus monkey)
T5 construct: also called His6-cynoTL1A
T5 chain: T3 sequence with F57L, I96V

T6: soluble recombinant of human FasL (His6, Pro134-Leu281) (UniProt P48023 134-281)
T6 chain: T2 sequence with Q10L, P20S, T70N, H108R

T7: soluble recombinant of human TL1A (His6, GS linker, Leu72-Leu251) (UniProt O95150 72-251)
T7 chain: T3 sequence

T8: soluble recombinant of human LIGHT (His10, GS linker, Asp74-Val240)
T8 chain: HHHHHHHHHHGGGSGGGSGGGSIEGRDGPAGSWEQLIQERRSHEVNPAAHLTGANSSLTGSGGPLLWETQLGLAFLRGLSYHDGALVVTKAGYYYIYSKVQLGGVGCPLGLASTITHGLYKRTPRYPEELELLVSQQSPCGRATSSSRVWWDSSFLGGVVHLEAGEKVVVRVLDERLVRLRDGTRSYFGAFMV

T9: soluble recombinant of cynomolgus monkey TL1A (His6, GS linker, Leu72-Leu251)
T9 chain: T3 sequence with F57L, I96V

T10: soluble recombinant of cynomolgus monkey LIGHT (His10, GS linker, Asp74-Val240)
T10 chain: T8 chain with P29H, A30G, E44Q, V45N, S80D, V88A, T89N, S146N, A164V, K167E

T11: soluble recombinant of cynomolgus monkey FasL (His6, Pro133-Leu280) (UniProt P63308 133-280)
T11 chain: T2 sequence

B1: chimera A-E57V-Fc (Eg1S N434A) (Fc fusion)
chain: ETFPPKYLHYDEETSHQLLCDKCPPGTYLKQHCTAKWKTVCAPCPPRHYTQFWNYLVRCRYCNVLCGEREEEARACHATHNRACRCRTGFFAHAGFCLEHASCPPGAGVIAPGTPSQNTQCQPCPDGFFSNETSSKAPCRKHTNCSVFGLLLTQKGNATHDNICSGNSESTQK[omitted - human IgG1 Fc with changes]
B2: chimera A-E57R-Fc (Eg1S N434A) (Fc fusion)
chain: ETFPPKYLHYDEETSHQLLCDKCPPGTYLKQHCTAKWKTVCAPCPPRHYTQFWNYLRRCRYCNVLCGEREEEARACHATHNRACRCRTGFFAHAGFCLEHASCPPGAGVIAPGTPSQNTQCQPCPDGFFSNETSSKAPCRKHTNCSVFGLLLTQKGNATHDNICSGNSESTQK[omitted - human IgG1 Fc with changes]
B3: chimera A-E57K-Fc (Eg1S N434A) (Fc fusion)
chain: ETFPPKYLHYDEETSHQLLCDKCPPGTYLKQHCTAKWKTVCAPCPPRHYTQFWNYLKRCRYCNVLCGEREEEARACHATHNRACRCRTGFFAHAGFCLEHASCPPGAGVIAPGTPSQNTQCQPCPDGFFSNETSSKAPCRKHTNCSVFGLLLTQKGNATHDNICSGNSESTQK[omitted - human IgG1 Fc with changes]
B4: chimera A-E57K_R58D-Fc (Eg1S N434A) (Fc fusion)
chain: ETFPPKYLHYDEETSHQLLCDKCPPGTYLKQHCTAKWKTVCAPCPPRHYTQFWNYLKDCRYCNVLCGEREEEARACHATHNRACRCRTGFFAHAGFCLEHASCPPGAGVIAPGTPSQNTQCQPCPDGFFSNETSSKAPCRKHTNCSVFGLLLTQKGNATHDNICSGNSESTQK[omitted - human IgG1 Fc with changes]
notes: also called 45-10-Fc (Eg1S N434A)
B5: chimera A-E57K_R58E-Fc (Eg1S N434A) (Fc fusion)
chain: ETFPPKYLHYDEETSHQLLCDKCPPGTYLKQHCTAKWKTVCAPCPPRHYTQFWNYLKECRYCNVLCGEREEEARACHATHNRACRCRTGFFAHAGFCLEHASCPPGAGVIAPGTPSQNTQCQPCPDGFFSNETSSKAPCRKHTNCSVFGLLLTQKGNATHDNICSGNSESTQK[omitted - human IgG1 Fc with changes]
notes: also called 45-18-Fc (Eg1S N434A)
B6: chimera A-E57A-Fc (g4PEK) (Fc fusion)
chain: ETFPPKYLHYDEETSHQLLCDKCPPGTYLKQHCTAKWKTVCAPCPPRHYTQFWNYLARCRYCNVLCGEREEEARACHATHNRACRCRTGFFAHAGFCLEHASCPPGAGVIAPGTPSQNTQCQPCPDGFFSNETSSKAPCRKHTNCSVFGLLLTQKGNATHDNICSGNSESTQK[omitted - human IgG4 Fc with S228P L235E R409K (EU numbers)]
B7: chimera A-Fc (g4PEK) E57D (Fc fusion)
chain: B6 chain with A57D
B8: chimera A-Fc (g4PEK) R60D (Fc fusion)
chain: B6 chain with A57E, R60D
B9: chimera A-Fc (g4PEK) R60L (Fc fusion)
chain: B6 chain with A57E, R60L

What follows are binders tested against T1, Human His6 Fas Ligand/TNFSF6 (Cell …) (assay: SPR, binder captured on Protein A chip).
Experimental: (§1) The binding activity to human and cynomolgus monkey DcR3 ligand trimers were analyzed by the SPR method. BIAcore T-100 (GE Healthcare) was used for measurement of the binding activities to human LIGHT, cynomolgus monkey LIGHT, human TL1A and cynomolgus monkey TL1A, and BIAcore T-200 (GE Healthcare) was used for measurement of the binding activities to human FasL and cynomolgus monkey FasL. As the buffer, HBS-EP+Buffer was used.
(§2) Various DcR3 variants were injected into Series S Sensor Chip Protein A (GE Healthcare) at 10 μL/min for 30 seconds and captured. Meanwhile, the buffer containing no protein was injected into a reference flow cell. Thereafter, as an analyte, each human DcR3 ligand trimer or each cynomolgus monkey DcR3 ligand trimer diluted to 0.08 to 20 nmol/L was injected. A human LIGHT trimer, a human TL1A trimer or each cynomolgus monkey DcR3 ligand trimer was injected at the flow rate of 30 μL/min for 2 minutes to monitor the binding, and subsequently the buffer was injected for 5 minutes to monitor dissociation. A human FasL trimer was injected at 30 μL/min for 1 minute to monitor the binding, and subsequently the buffer was injected for 3 minutes to monitor dissociation. Then, 3 mol/L magnesium chloride was injected at 30 μL/min for 1 minute to perform a regeneration reaction.

| Binder | binding result |
| --- | --- |
| B1 | binds |
| B2 | binds |
| B3 | binds |
| B4 | binds |
| B5 | binds |

What follows are binders tested against T2, soluble recombinant of cynomolgus … (assay: SPR, binder captured on Protein A chip).
Experimental: as §1, §2

| Binder | binding result |
| --- | --- |
| B1 | binds |
| B2 | binds |
| B3 | binds |
| B4 | binds |
| B5 | binds |

The binders below were run against T3, soluble recombinant of human TL1A … (assay: SPR, binder captured on Protein A chip).
Experimental: as §1, §2

| Binder | binding result |
| --- | --- |
| B1 | binds |
| B2 | binds |
| B3 | binds |
| B4 | binds |
| B5 | binds |

These binders were tested against T12, FLAG-LIGHT (FLAG tag, human LIGHT Asp74-Val240) (human, UniProt O43557 74-240) (assay: SPR, binder captured on Protein A chip).
T12 construct: SEC trimer fraction; also called soluble recombinant FLAG-LIGHT trimer; soluble human LIGHT trimer
Experimental: as §1, §2

| Binder | binding result |
| --- | --- |
| B1 | binds |
| B2 | binds |
| B3 | binds |
| B4 | binds |
| B5 | binds |

Molecular target: T4, FLAG-cynoLIGHT (FLAG tag, cynomolgus …)
Assay: SPR, binder captured on Protein A chip
Experimental: as §1, §2

| Binder | binding result |
| --- | --- |
| B1 | binds |
| B2 | binds |
| B3 | binds |
| B4 | binds |
| B5 | binds |

Molecular target: T5, soluble recombinant of cynomolgus …
Assay: SPR, binder captured on Protein A chip
Experimental: as §1, §2

| Binder | binding result |
| --- | --- |
| B1 | binds |
| B2 | binds |
| B3 | binds |
| B4 | binds |
| B5 | binds |

Molecular target: T6, soluble recombinant of human FasL …
Assay: SPR

| Binder | koff [s⁻¹] |
| --- | --- |
| B6 | 0.00701 |
| B7 | 0.00104 |

Molecular target: T7, soluble recombinant of human TL1A …
Assay: SPR

| Binder | koff [s⁻¹] |
| --- | --- |
| B6 | 0.000338 |
| B7 | 0.000221 |

Molecular target: T8, soluble recombinant of human LIGHT …
Assay: SPR

| Binder | koff [s⁻¹] |
| --- | --- |
| B6 | 0.000199 |
| B7 | 0.000195 |

Molecular target: T6, soluble recombinant of human FasL …
Assay: BIAcore SPR
In short: (§3)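 Dissociation constants (Kd, nM) come from surface plasmon resonance measurements on a BIAcore T-100 or T-200 instrument (GE Healthcare) in HBS-EP+ Buffer. Each test molecule was analysed for binding to soluble recombinant His-tagged human or cynomolgus monkey LIGHT, TL1A or FasL.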

| Binder | Kd [nM] |
| --- | --- |
| B1 | 5.6 |
| B2 | 4.1 |
| B3 | 3.8 |
| B4 | 4.1 |
| B5 | 3.9 |

Molecular target: T7, soluble recombinant of human TL1A …
Assay: BIAcore SPR
In short: as §3

| Binder | Kd [nM] |
| --- | --- |
| B1 | 0.23 |
| B2 | 0.3 |
| B3 | 0.24 |
| B4 | 0.21 |
| B5 | 0.18 |

Molecular target: T8, soluble recombinant of human LIGHT …
Assay: BIAcore SPR
In short: as §3

| Binder | Kd [nM] |
| --- | --- |
| B1 | 0.33 |
| B2 | 0.35 |
| B3 | 0.37 |
| B4 | 0.31 |
| B5 | 0.26 |

Molecular target: T9, soluble recombinant of cynomolgus …
Assay: BIAcore SPR
In short: as §3

| Binder | Kd [nM] |
| --- | --- |
| B1 | 0.21 |
| B2 | 0.33 |
| B3 | 0.27 |
| B4 | 0.19 |
| B5 | 0.16 |

Molecular target: T10, soluble recombinant of cynomolgus …
Assay: BIAcore SPR
In short: as §3

| Binder | Kd [nM] |
| --- | --- |
| B1 | 0.3 |
| B2 | 0.31 |
| B3 | 0.39 |
| B4 | 0.32 |
| B5 | 0.25 |

Molecular target: T11, soluble recombinant of cynomolgus …
Assay: BIAcore SPR
In short: as §3

| Binder | Kd [nM] |
| --- | --- |
| B1 | 1.1 |
| B2 | 1 |
| B3 | 1 |
| B4 | 1 |
| B5 | 1.1 |

Molecular target: T6, soluble recombinant of human FasL …
Assay: SPR
Remark: another data set of the same source

| Binder | koff [s⁻¹] |
| --- | --- |
| B8 | 9.49e-06 |
| B9 | 0.00111 |

Molecular target: T7, soluble recombinant of human TL1A …
Assay: SPR
Remark: another data set of the same source

| Binder | koff [s⁻¹] |
| --- | --- |
| B8 | 0.000848 |
| B9 | 0.000328 |

Molecular target: T8, soluble recombinant of human LIGHT …
Assay: SPR
Remark: another data set of the same source

| Binder | koff [s⁻¹] |
| --- | --- |
| B8 | 0.000474 |
| B9 | 0.00022 |
